Results published in publication PMC4336329 (PLoS ONE, 2015).
In all, about 310,000 compounds went through this assay and about 14,000 (4.5%) showed an effect of 50% or more. Effects have a minus sign here. The list shows a part of the results.

biological target: human ether-à-go-go-related gene (hERG) potassium channel (human, UniProt Q12809); assay: primary screen, population patch clamp on CHO cells stably expressing hERG
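Note: peak tail current of the secondary pulse compared with the same well before compound.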

Sequence of human ether-à-go-go-related gene (hERG) potassium channel (Q12809 whole entry, looked up): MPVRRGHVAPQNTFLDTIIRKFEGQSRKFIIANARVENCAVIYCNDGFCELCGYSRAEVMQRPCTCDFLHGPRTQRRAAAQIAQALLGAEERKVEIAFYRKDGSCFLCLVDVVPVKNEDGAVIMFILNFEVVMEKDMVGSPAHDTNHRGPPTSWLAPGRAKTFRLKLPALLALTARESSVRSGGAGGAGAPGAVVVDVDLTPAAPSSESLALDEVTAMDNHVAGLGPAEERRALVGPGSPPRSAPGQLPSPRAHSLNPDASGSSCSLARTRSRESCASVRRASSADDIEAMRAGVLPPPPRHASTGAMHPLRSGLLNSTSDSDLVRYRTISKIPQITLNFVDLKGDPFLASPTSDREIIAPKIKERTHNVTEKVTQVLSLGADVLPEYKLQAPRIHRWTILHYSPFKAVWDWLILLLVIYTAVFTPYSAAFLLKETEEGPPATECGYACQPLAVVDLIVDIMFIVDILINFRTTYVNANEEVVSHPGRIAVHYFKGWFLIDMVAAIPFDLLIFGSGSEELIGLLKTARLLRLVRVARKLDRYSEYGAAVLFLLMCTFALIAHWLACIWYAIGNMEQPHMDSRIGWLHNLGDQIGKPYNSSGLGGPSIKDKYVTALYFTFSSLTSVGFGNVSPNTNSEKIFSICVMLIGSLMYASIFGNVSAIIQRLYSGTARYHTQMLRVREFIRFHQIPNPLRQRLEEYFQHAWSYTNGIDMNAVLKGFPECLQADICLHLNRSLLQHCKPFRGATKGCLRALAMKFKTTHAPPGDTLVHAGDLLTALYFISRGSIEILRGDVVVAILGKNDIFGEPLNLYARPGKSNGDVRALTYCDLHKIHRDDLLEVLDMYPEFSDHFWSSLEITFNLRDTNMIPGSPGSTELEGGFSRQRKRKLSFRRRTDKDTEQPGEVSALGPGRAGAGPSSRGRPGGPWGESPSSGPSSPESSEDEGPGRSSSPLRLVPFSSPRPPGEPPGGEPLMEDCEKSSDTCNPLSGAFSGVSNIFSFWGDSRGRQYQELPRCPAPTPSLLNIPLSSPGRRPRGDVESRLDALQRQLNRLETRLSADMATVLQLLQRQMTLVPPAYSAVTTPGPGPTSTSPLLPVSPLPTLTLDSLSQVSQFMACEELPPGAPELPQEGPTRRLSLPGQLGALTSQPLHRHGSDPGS

Row | SMILES | hERG current change (%, negative = inhibition) at 10uM [%]
1 | O=C(CSc1nnc(-c2ccc3c(c2)OCO3)n1-c1ccccc1)c1ccccc1 | -6.49
2 | CCOC(=O)C1C(c2cccc(Cl)c2Cl)NC(=O)NC1(O)C(F)(F)F (centres unmarked) | 4.8
3 | O=C1C=C(c2ccc(-c3ccccc3)cc2)C[C@@H](c2ccc(F)cc2)C1 | 6.67
4 | Cc1ccc(NCc2nnc(SCC(=O)N3CCCc4ccccc43)o2)c(C)c1 | 12.7
5 | COc1ccc(C(=O)COC(=O)COc2cccc3c2OC(C)(C)C3)c(OC)c1 | 13.5
6 | O=C(Nc1ccccn1)c1ccc(CN(c2ccccc2)S(=O)(=O)c2ccccc2)cc1 | 9.86
7 | O=C1CSC(=S)N1/N=C/c1c(F)cccc1F | 25.3
8 | Cc1cc(C)nc(NC(=O)CSc2nc3ccccc3o2)n1 | -14.4
9 | CCOC(=O)c1ccccc1NC(=O)C1CC(=O)N(C2CCCCC2)C1 (centres unmarked) | -22.7
10 | CCC(C)NC(=O)CCc1c(C)nc2c(c(C)nn2-c2ccccc2)c1C (centres unmarked) | -1.82
11 | CCC(=O)c1ccc(OCC(=O)OCC(=O)NC2CCCCCC2)cc1 | 18.6
12 | CCOC(=O)CN1NC2(CCC(C(C)(C)C)CC2)NC1=S (centres unmarked) | 14.7
13 | COc1ccc2cc(S(=O)(=O)N3CCOCC3)ccc2c1 | -19.6
14 | COc1cc(NC(=S)NC(=O)c2cc(C)cc(C)c2)ccc1NC(=O)c1cccs1 | 22.5
15 | CCCC12CN3CCN(CC(C3)/C1=N\NC(=O)c1ccc(C(C)(C)C)cc1)C2 | -14.4
16 | O=C(NCc1cccs1)c1cccc(Nc2nc3ccc(Br)cc3[nH]2)c1 | 11.2
17 | O=C(O)c1ccccc1SCc1csc(-c2ccccc2)n1 | 5.76
18 | O=C(N/N=C/c1ccccc1F)C(=O)N1CCCCCC1 | 4.7
19 | O=C1c2ccccc2C(=O)N1CCc1csc(-c2ccccc2)n1 | -23.7
20 | O=c1[nH]cnc2c1C(c1ccccc1[N+](=O)[O-])c1c(nc[nH]c1=O)O2 | 6.83
21 | Cc1cc(C)n2c(SCC(=O)Nc3ccccc3)nnc2n1 | -9.2
22 | O=C(COC(=O)c1ccc(Sc2ccccc2)c([N+](=O)[O-])c1)NC1CCCc2ccccc21 (centres unmarked) | 2.44
23 | N/C(=N\OC(=O)COc1ccc2ccccc2c1Br)c1ccccn1 | 3.81

Row | SMILES | hERG current change (%, negative = inhibition) at 10uM [%]
24 | Cc1ccccc1/C=C1\CCCc2ccccc2C1=O | -0.224
25 | Cn1c(=O)cc(OCCCC(=O)NCCN2CCN(c3ccccc3F)CC2)c2ccccc21 | -7.18
26 | CCCCn1c(O)c(C(C)=NCCCn2ccnc2)c(=O)[nH]c1=O | -37
27 | O=S(=O)(Nc1cccc(-c2cn3cccnc3n2)c1)c1ccc(F)cc1 | -21.2
28 | CCc1ccc(NC(=O)c2cnc(N3CCN(c4ccccn4)CC3)c3ccccc23)cc1 | 1.85
29 | CN(C)Cc1c(O)ccc2c(=O)c(-c3ccccc3Cl)c(C(F)(F)F)oc12 | 7.08
30 | Cn1c(SCC(=O)Nc2ccc(Br)cc2)nc(O)cc1=O | 13.3
31 | COc1ccccc1CNC(=O)C1CCC(CNc2c(N3CCOCC3)c(=O)c2=O)CC1 (centres unmarked) | 20.1
32 | Cc1ccccc1CC(=O)NCC1CCCCC1 | 1.34
33 | COc1ccc(NC(=O)COC(=O)Cc2cccs2)cc1OC | -27.4
34 | O=S1(=O)CCN2C(c3cccc4ccccc34)=CSC2=N1 | 9.4
35 | N#Cc1ccc2c(c1)nc1ccccn12 | 10.9
36 | CCCC(C)C(=O)Nc1ccc(S(=O)(=O)Nc2nccc(C)n2)cc1 (centres unmarked) | 21.5
37 | C1CCN(c2nc3nonc3nc2NCC2CCOCC2)CC1 | 19.6
38 | Cc1ccc2cc(CCNC(=O)c3cccs3)c(=O)[nH]c2c1 | -4.89
39 | O=C(Nc1ccccc1)C1CCN(C(=O)c2ccccc2)CC1 | 4.62
40 | C/C(=N\NC(=O)C1=NNC(=O)C1C)c1cccs1 (centres unmarked) | 11
41 | O=C(CCNS(=O)(=O)c1ccccc1)OCC(=O)c1ccc(F)cc1 | -2.98
42 | O=S1(=O)CCC(NC(=S)Nc2ccc(Cl)cc2)C1 (centres unmarked) | -4.28
43 | O=C(Nc1nc(-c2ccccc2)ns1)c1ccncc1 | 2.33
44 | O=c1c(S(=O)(=O)c2ccc(Cl)cc2)cn(Cc2ccccc2F)c2ccc(F)cc12 | 10.2
45 | COc1ccc(C)cc1NC(=O)CN1C(=O)COc2ccc(S(=O)(=O)N3CCCCC3)cc21 | 15.3
46 | CC1(C)CC(=O)C2=C(C1)NC(=O)CC2c1ccc(F)cc1 (centres unmarked) | 5.09

Row | SMILES | hERG current change (%, negative = inhibition) at 10uM [%]
47 | Cc1cccc2cc(C#N)c(SCC(=O)NCC3CCCO3)nc12 (centres unmarked) | 17
48 | CCCCCCCCC(=O)N/N=C/c1cccc(Br)c1 | -2.34
49 | COc1ccc(OC)c2c(C)cc(NCCN3CCOCC3)nc12 | -34.5
50 | O=C(CN1C(=O)NC2(CCCC2)C1=O)N1CCN(S(=O)(=O)c2cccc(F)c2)CC1 | 22.2
51 | C/C(=N\NC(=O)Cc1ccc(F)cc1)c1ccc(O)cc1 | 13
52 | Cc1ccc(-c2cc(-c3ccc(C)cc3)[n+](-c3ccc(C(=O)[O-])cc3)c(-c3ccc(C)cc3)c2)cc1 | -26.8
53 | CC(=O)N1CCC(N(C(=O)Nc2ccc(Cl)cc2)C(C)C)CC1 | -6.69
54 | Cc1nc2ccccc2c2oc(C(=O)NCCCN3CC(C)CC(C)C3)cc12 (centres unmarked) | -36.2
55 | CC(C)CNS(=O)(=O)c1cc(C(=O)N2CC(C)OC(C)C2)c(Cl)cc1Cl (centres unmarked) | -13.1
56 | COc1ccc(N2CCN(S(=O)(=O)CCNC(=O)CCCc3ccccc3)CC2)cc1 | -0.516
57 | CC(C)N1CC(COc2ccc(Br)cc2)OC1=O (centres unmarked) | -39.5
58 | COc1ccc(NC(=O)c2cc3n(n2)C(C(F)(F)F)CC(c2ccc4c(c2)OCO4)N3)cc1OC (centres unmarked) | -0.625
59 | O=C(OCC(=O)N1CCOCC1)c1ccc2ccccc2c1O | -13.8
60 | Cc1ccc(-c2cc(C(F)F)nc(N3CCC(C)CC3)n2)cc1 | 14.5
61 | Cc1cccc(N2CCN(C(=O)c3ccccc3NC(=O)C3CCCCC3C(=O)O)CC2)c1 (centres unmarked) | -1.28
62 | COCc1nnc(NC(=O)c2cc(C(=O)OC)cc([N+](=O)[O-])c2)s1 | -2.76
63 | COc1ccccc1NC(=O)CSc1ccc(-c2cccs2)nn1 | -3.9
64 | CC(C)(Oc1ccc(Cl)cc1)C(=O)OCC(=O)Nc1ncc(Cl)cc1Cl | -2.34
65 | CCOC(=O)N1CCN(Cc2nc3c(c(=O)n(C)c(=O)n3C)n2Cc2cccc(C)c2)CC1 | -30.1
66 | CCOC(=O)C(N)CSC1CC(=O)N(CCc2ccccc2)C1=O.Cl (centres unmarked) | 10.9
67 | COc1cc(/C=N/n2cnnc2)ccc1OS(=O)(=O)c1ccccc1[N+](=O)[O-] | -51
68 | COC(=O)c1c(N2C(=O)Nc3ccccc3N2O)sc2c1CCCC2 | 6.68
69 | COc1nc(NC(C)C)nc(NC(C)C)n1 | 2.02

Row | SMILES | hERG current change (%, negative = inhibition) at 10uM [%]
70 | CCOC(=O)c1cnc(-n2nc(C)cc2C)nc1NCCc1ccccc1 | -51.6
71 | Cc1cccc(C(=O)NCCC(=O)Nc2nc(C)c(Cc3ccc4c(c3)OCO4)s2)c1 | 4.11
72 | CCOc1ccccc1NC(=S)/C(=C(\[O-])c1ccc2c(c1)OCCO2)[n+]1ccc(CC)cc1 | -16
73 | O=C(O)CC(NC(=O)CC(c1ccccc1)c1ccccc1)c1cccc([N+](=O)[O-])c1 (centres unmarked) | 17.5
74 | COCCNC(=S)N/N=C(\C)c1ccc(Cl)c(Cl)c1Cl | 12
75 | CCCn1c(SCC(=O)NCc2ccccc2)n[nH]c1=O | 7.49
76 | Cc1nc2ccccc2n1CC(=O)OCC(=O)NC1CC1 | 29.4
77 | CC1(c2cccc(Br)c2)NC(=O)N(CC(=O)NC2CCCCC2)C1=O (centres unmarked) | -7.24
78 | COC(=O)C(CC(=O)c1ccc(Br)cc1)n1nc(C)cc1C (centres unmarked) | 5.79
79 | CCCc1ccc(OCC(O)CN2CCN(CCO)CC2)cc1.Cl (centres unmarked) | -13.7
80 | Cc1ccc(N=C/C(C(=O)C(F)(F)F)=C(\O)c2ccco2)cc1Cl | -7.36
81 | O=[N+]([O-])c1ccc(N2CCNCC2)cc1NCC1CCCO1 (centres unmarked) | -22.1
82 | O=C(C[n+]1cccc2ccccc21)c1ccc(Cl)cc1.[Br-] | -23.7
83 | S=c1sc(SCCOc2ccccc2)nn1-c1ccccc1 | 7.64
84 | CCn1c(SCC(=O)N/N=C/C=C\c2ccco2)nc2ccccc21 | -9.42
85 | CC1(C)CC(CNCCC(c2ccc(F)cc2)c2ccco2)CCO1 (centres unmarked) | -62.5
86 | CC(C)NC(=O)c1onc(CSc2ccccc2)c1C(=O)O | 8.65
87 | O=C(Nn1cnnc1)c1ccc(Br)s1 | 13.9
88 | O=C(COc1ccc(Br)cc1CNC1CCCCC1)NCCc1ccccc1 | -77
89 | NC(=O)COC(=O)c1ccc(S(=O)(=O)NCc2ccco2)cc1 | 8.43
